According to PubChem BioAssay (NCI):
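96-well plates; 48 h exposure; 5 concentrations. Endpoints by linear interpolation between flanking doses. Not reached: highest tested concentration assigned. The concentration for 50% growth inhibition is given as GI50. The concentration for full growth arrest is given as TGI.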

These compounds were tested on NCI-H322M lung (assay: growth of human tumour cells (NCI), 48 h).

`CC(C)(C)OC(=O)N1C/C(=C\c2ccc(F)cc2)C(=O)/C(=C/c2ccc(F)cc2)C1` and `CCCCCc1ccc(S(=O)(=O)Nc2cc(-c3csc(N(C)C(C)=O)n3)ccc2N2CCN(C)CC2)cc1` are within 1.5-fold of each other in GI50: 12.2 µM for the first, 9.17 µM for the second.

Work on `COc1ccc2cc([C@H](C)C(=O)NCc3ccccc3)ccc2c1` yielded a GI50 of 5.42 µM.

Going from `CC(C)(C)OC(=O)N1C/C(=C\c2ccc(F)cc2)C(=O)/C(=C/c2ccc(F)cc2)C1` to `CCCCCc1ccc(S(=O)(=O)Nc2cc(-c3csc(N(C)C(C)=O)n3)ccc2N2CCN(C)CC2)cc1`, the TGI rises from 27.8 µM to > 35.5 µM.

With `COc1ccc2cc([C@H](C)C(=O)NCc3ccccc3)ccc2c1` the TGI was > 100 µM.
